Reference: patent US20250145646A1, “MACROCYCLIC COMPOUNDS AND DIAGNOSTIC USES THEREOF” (JANSSEN BIOTECH, INC., priority 2021, published 2025)

What was measured:
[1] = DTPA challenge of the 134Ce drug product (iTLC); assay type: physicochemical
Protocol: Aliquot of the drug product solution ^134Ce-TOPA-PSMB1154 (25 μL) was incubated with 10 mM DTPA, pH=6 (50 μL) at room temperature for 30 min. The mixture (2 μL) was spotted on an iTLC strip and the TLC was developed with a 10 mM EDTA solution (pH˜6).
The drug product solution ^134Ce-TOPA-PSMB1154 was kept at 2-8° C. for approx. 24 hours.
Aliquot of the drug product solution ^134Ce-TOPA-B23B62 (25 μL) was incubated with 10 mM DTPA, pH=6 (50 μL) at room temperature for 30 min. The mixture (2 μL) was spotted on an iTLC strip and the TLC was developed with a 10 mM EDTA solution (pH˜6).
The drug product solution was kept at 2-8° C. for approx. 24 hours.

[2] = HPLC analysis of the 134Ce drug product at t=0 h and t=24 h; assay type: physicochemical
Protocol: HPLC system: Agilent/Lablogic Flow RAM (FR-1A). HPLC method: column: AdvanceBio SEC 300A, 2.7 μm, 7.8×300 mm; mobile phase: Phosphate Buffer, pH 6.8; flow rate: 1 mL/min; column temperature 25° C.; injection volume 20 μL.
The drug product solution was kept at 2-8° C. for approx. 24 hours. After it was equilibrated to room temperature, 100 μL of the drug product solution was analyzed by HPLC.

[3] = molecular target: antigen (prostate-specific membrane antigen, PSMA) (Homo sapiens, UniProt Q04609); assay: HPLC IRF assay of the drug product; assay type: binding; conditions: antigen solution 1.03 mg/mL, room temperature 20 min
Sequence of antigen (prostate-specific membrane antigen, PSMA) (Q04609 whole entry): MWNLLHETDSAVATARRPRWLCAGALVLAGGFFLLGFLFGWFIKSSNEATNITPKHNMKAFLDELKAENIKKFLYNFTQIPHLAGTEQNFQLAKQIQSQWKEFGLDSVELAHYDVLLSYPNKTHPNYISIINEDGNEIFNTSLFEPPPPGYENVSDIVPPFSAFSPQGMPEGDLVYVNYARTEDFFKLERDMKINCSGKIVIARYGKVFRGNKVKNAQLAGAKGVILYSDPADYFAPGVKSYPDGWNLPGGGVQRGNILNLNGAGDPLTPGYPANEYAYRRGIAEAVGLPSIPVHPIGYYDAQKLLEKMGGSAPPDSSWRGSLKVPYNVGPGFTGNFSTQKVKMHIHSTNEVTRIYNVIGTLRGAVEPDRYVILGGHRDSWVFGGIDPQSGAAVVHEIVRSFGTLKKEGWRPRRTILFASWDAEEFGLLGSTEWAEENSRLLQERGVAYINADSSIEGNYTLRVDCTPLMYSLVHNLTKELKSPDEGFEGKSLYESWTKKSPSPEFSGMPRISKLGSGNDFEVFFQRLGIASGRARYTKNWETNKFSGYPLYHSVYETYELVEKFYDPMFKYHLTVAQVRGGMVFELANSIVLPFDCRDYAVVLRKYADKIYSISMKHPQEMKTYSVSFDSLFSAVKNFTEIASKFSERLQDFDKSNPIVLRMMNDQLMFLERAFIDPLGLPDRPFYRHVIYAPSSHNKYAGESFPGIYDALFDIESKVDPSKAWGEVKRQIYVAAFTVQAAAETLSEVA
Protocol: 55 μL of the drug product solution was mixed with 40 μL antigen solution (1.03 mg/mL). The mixed solution was left at room temperature for 20 min.

[4] = Stability of 134Ce-TOPA-1154 in formulation buffer (iTLC); assay type: physicochemical; conditions: Formulation Buffer @ 4° C.
Protocol: Human, Mouse and Cyno serum was removed from a refrigerator at −20° C. and allowed to thaw to room temperature for 2 h. The serum was filtered through 0.2 μm filter before it was used for stability testing. Formulation buffer (25 mM NaOAc+0.04% PS-20 at pH5.5) was also sterilized by filtering through 0.2 μm filter before it was used for the stability test.
To an aliquot of the drug product solution ^134Ce-TOPA-1154 (0.1 mL, ˜145 uCi) was added 1.35 mL of the filtered formulation buffer. The diluted solution of ^134Ce-TOPA-1154 (0.1 mCi/mL) was used to prepare the following four solutions: • 1. The diluted solution of ^134Ce-TOPA-1154 (0.1 mCi/mL, 0.1 mL)+0.1 mL of the filtered formulation buffer. The mixed solution was kept in a refrigerator at 4° C. • 2. The diluted solution of ^134Ce-TOPA-1154 (0.1 mCi/mL, 0.1 mL)+0.1 mL of the filtered human serum. The mixed solution was kept at 37° C. • 3. The diluted solution of ^134Ce-TOPA-1154 (0.1 mCi/mL, 0.1 mL)+0.1 mL of the filtered mouse serum. The mixed solution was kept at 37° C. • 4. The diluted solution of ^134Ce-TOPA-1154 (0.1 mCi/mL, 0.1 mL)+0.1 mL of the filtered cyno serum. The mixed solution was kept at 37° C.
iTLC without DTPA challenge: At time points of t=0 h, 24 h and 96h, 5-10 μL each of the above four solutions (1, 2, 3, and 4) were spotted on iTLC strips respectively. Each TLC was developed using 10 mM EDTA. Each TLC was scanned on a Lablogic Scan-RAM Radio TLC scanner at >1h after its development.
iTLC with DTPA challenge: At time points of t=0 h, 24 h and 96h, 30 uL each of the above four solutions (1, 2, 3, and 4) was mixed with 10 μL of 10 mM DTPA solution (pH 6.5) respectively. After the solutions were incubated at room temperature for 30 min, 5-10 uL each of the solutions was spotted on iTLC strips respectively. Each TLC was developed using 10 mM EDTA. Each TLC was scanned on a Lablogic Scan-RAM Radio TLC scanner at >1 h after its development.
The radioactivity at the TLC origin is the ^134Ce-TOPA-1154 and the radioactivity at the solvent front is the free or loosely bound Ce-134.

B1: ^134Ce-TOPA-PSMB1154 (conjugate)
heavy: EVQLVESGGGEVQPGRSLRLTCAVSGFTLSRYGMHWVRQAPGKGLEWAALISYDGSNRYYADSVKGRFTISRDNSKNTVFLQMNSLRAEDTAVYYCARERESSGWFEGYFDYWGQGTTVTVSS[left out - human IgG1 constant region]
light: QLVLTQPPSVSVAPGQTARITCGGNNIGSKSVHWYQQKPGQAPVLVVYDNSDRPSGIPERFSGSNSGNTATLTISRVEVGDEADYYCQVWDSSSDHVVFGGGTKLTVLGQPKAAPSVTLFPPSSEELQANKATLVCLISDFYPGAVTVAWKADSSPVKAGVETTTPSKQSNNKYAASSYLSLTPEQWKSHRSYSCQVTHEGSTVEKTVAPTECS
bound Ce-134 after DTPA challenge ([1]; drug product after purification, 10 mM DTPA pH=6, room temperature 30 min): 99.9%
bound Ce-134 after DTPA challenge ([1]; drug product kept at 2-8° C. for approx. 24 hours): 99.4%
chemical purity by UV trace at 280 nm (HPLC) ([2]; t=0 h): 99.8%
radiochemical purity (HPLC) ([2]; t=0 h): 99.7%
chemical purity by UV trace at 280 nm (HPLC) ([2]; t=24h, kept at 2-8° C.): 96.5%
radiochemical purity (HPLC) ([2]; t=24h, kept at 2-8° C.): 98.3%
radioconjugate bound to antigen (radio-chromatogram) [3]: 96.5%
% of intact ^134Ce-TOPA-1154 ([4]; w/DTPA, 0 hr): 93.3%
% of intact ^134Ce-TOPA-1154 ([4]; w/DTPA, 24 hr): 93.8%
% of intact ^134Ce-TOPA-1154 ([4]; w/DTPA, 96 hr): 94%
% of intact ^134Ce-TOPA-1154 ([4]; w/o DTPA, 0 hr): 95%
% of intact ^134Ce-TOPA-1154 ([4]; w/o DTPA, 24 hr): 90 (*) %
% of intact ^134Ce-TOPA-1154 ([4]; w/o DTPA, 96 hr): 98.5%
